Assay results published in PubChem BioAssay AID720708 (National Center for Advancing Translational Sciences (NCATS), 2013).
About 660 (0.18%) of roughly 360,000 compounds were called active. Inconclusive results, whose numbers are uncertain, are shown with a selection of clear calls. Calls follow the shape of the dose curve; as a rule, active = well fitted inhibition curve with a large enough effect; inconclusive = small, poorly fitted or top-dose-only effect; inactive = no such curve, though single readings can be large or run the other way. No potency is given beside an inconclusive call; the fits are too rough.

Each compound was assayed against Rap guanine nucleotide exchange factor 4 (Homo sapiens) (UniProt Q8WZA2) (assay: qHTS for Antagonist of cAMP-regulated guanine nucleotide exchange factor 2 (EPAC2): primary screen). Details: EPAC2 GEF exchange of Rap1B-BODIPY-GDP, fluorescence; activity, negative = inhibition: at 114 µM (top of the series) unless noted.
Sequence of UniProt Q8WZA2 (Q8WZA2 whole entry, looked up): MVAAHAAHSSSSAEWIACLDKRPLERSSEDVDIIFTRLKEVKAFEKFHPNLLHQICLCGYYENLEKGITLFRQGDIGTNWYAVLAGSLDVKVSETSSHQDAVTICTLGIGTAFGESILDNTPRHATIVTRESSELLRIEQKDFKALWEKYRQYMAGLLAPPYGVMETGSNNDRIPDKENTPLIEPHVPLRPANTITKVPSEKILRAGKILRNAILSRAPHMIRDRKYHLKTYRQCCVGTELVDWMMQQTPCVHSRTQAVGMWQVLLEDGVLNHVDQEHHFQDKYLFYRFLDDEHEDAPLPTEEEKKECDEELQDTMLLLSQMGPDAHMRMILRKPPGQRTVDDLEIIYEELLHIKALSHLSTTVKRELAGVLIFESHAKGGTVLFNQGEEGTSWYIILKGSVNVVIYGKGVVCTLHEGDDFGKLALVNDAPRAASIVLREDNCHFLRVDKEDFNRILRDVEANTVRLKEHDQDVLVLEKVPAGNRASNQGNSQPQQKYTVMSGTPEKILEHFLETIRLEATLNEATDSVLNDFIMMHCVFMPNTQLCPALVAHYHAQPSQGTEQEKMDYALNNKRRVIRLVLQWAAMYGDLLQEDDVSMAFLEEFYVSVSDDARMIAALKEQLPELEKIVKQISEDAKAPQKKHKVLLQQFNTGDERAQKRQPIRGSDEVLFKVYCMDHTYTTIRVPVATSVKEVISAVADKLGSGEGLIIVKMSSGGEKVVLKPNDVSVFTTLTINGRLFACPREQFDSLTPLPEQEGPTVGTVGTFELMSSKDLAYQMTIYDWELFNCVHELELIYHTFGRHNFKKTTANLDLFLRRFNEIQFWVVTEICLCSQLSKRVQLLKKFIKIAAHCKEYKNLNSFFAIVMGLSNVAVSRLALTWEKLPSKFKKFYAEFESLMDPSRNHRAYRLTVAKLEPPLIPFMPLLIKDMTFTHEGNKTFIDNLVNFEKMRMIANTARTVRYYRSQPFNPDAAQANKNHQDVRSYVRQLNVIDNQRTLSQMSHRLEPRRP
% is scaled to controls: 0 for no effect and ±100 for the full control effect; potency is read from the fitted curve at half-maximal effect; tags tell the direction and shape of the fitted curve.
Also: nearly all actives have a fitted effect of over 45% in size.

| SMILES | Potency | activity, negative = inhibition |
| --- | --- | --- |
| COc1ccc(C(C)(O)c2nc(-c3ccccc3OC)cs2)cc1 (centres undefined) | inconclusive [inhibitor, partial curve] |  |
| CCOC(=O)c1c(NC(=O)c2ccc(-n3cnnn3)cc2)sc2c1CCCC2 | inconclusive [inhibitor, partial curve] |  |
| O=C(N/N=C/c1cc(Cl)c(O)c(Cl)c1)c1cc2c(ccc3ccccc32)o1 | inconclusive [inhibitor, partial curve] |  |
| O=C(O)c1ccc2c(c1)C(=O)N(c1cccc3ccccc13)C2=O |  | inactive: 1.66% |
| O=C(c1ccc(S(=O)(=O)Cc2cc(F)ccc2F)c([N+](=O)[O-])c1)N1CCOCC1 |  | inactive: 5.13% |
| Cc1ccc(S(=O)(=O)/N=C2\C=C(NS(=O)(=O)c3ccccc3)C(=O)c3ccccc32)cc1 | inconclusive [inhibitor, full curve] |  |
| CCOC(=O)CSc1nc(-c2ccccc2)ns1 | inconclusive [inhibitor, partial curve] |  |
| COC(=O)c1ccc(CSc2ccc3nnc(-c4ccc(F)cc4)n3n2)o1 | inconclusive [inhibitor, partial curve] |  |
| C#CCOCCOCCOCCNc1nc(N2CCN(C(=O)[C@H](CO)n3cc([C@@H](N)C(C)C)nn3)CC2)nc(N2CCN(C(=O)[C@H](CCC(=O)O)n3cc([C@@H](N)[C@H](C)CC)nn3)CC2)n1 |  | inactive: 5.29% |
| Cc1ccc(C(=O)Nc2ccccc2Oc2ccccc2)o1 | inconclusive [inhibitor, partial curve] |  |
| Cc1cc(C)nc(N(C#N)Cc2cccc(Cl)c2)n1 | inconclusive [inhibitor, partial curve] |  |
| C(=N\N(c1ccccc1)c1ccccc1)/c1ccc2c(c1)OCO2 |  | inactive: -1.13% |
| COc1cc(C)c(CNc2cc(C)cc(C)c2)cc1C | inconclusive [inhibitor, single point] |  |
| COc1ccc(S(=O)(=O)/N=C2\C=C(NS(=O)(=O)c3ccccc3)C(=O)c3ccccc32)cc1 | inconclusive [inhibitor, partial curve] |  |
| COc1cccc(NC2=C(C#N)C(=O)NC(c3cccc(OC)c3O)S2)c1 (centres undefined) |  | inactive: 2.42% |
| COc1cc(OC)cc(-c2sc3ccc(OC)cc3c2C#CCCO)c1 | inconclusive [inhibitor, full curve, poor fit] |  |
| Cc1cccc(S(=O)(=O)Nc2ccc(S(=O)(=O)Nc3nccs3)cc2)c1 | inconclusive [inhibitor, partial curve] |  |
| Cc1c(Br)c(O)c(Br)c2sc(=O)oc12 | inconclusive [inhibitor, partial curve] |  |
| Cc1ccc(Cl)c(Nc2ccccc2C(=O)O)c1Cl | inconclusive [inhibitor, partial curve] |  |
| O=C1NC(=O)C2(N1)c1ccccc1-c1ccccc12 |  | inactive: 8.19% |
| Cc1c(NC(=O)/C=C/c2cn(-c3ccccc3)nc2-c2ccccc2)c(=O)n(-c2ccccc2)n1C | inconclusive [inhibitor, single point] |  |
| CC1CCc2c(sc3ncnc(NS(=O)(=O)c4cccs4)c23)C1 (centres undefined) | inconclusive [inhibitor, full curve] |  |

| SMILES | Potency | activity, negative = inhibition |
| --- | --- | --- |
| Fc1cccc(Cc2c(-c3ccc(Cl)cc3)nc3ccc(Cl)cn23)c1 | inconclusive [inhibitor, single point] |  |
| Cc1c(CCC(=O)O)c(=O)oc2cc3oc4c(c3cc12)CCCC4 | inconclusive [inhibitor, partial curve] |  |
| Cc1noc(C)c1C(=O)N(CC(C)C)c1nc2ccccc2s1 | inconclusive [inhibitor, partial curve] |  |
| CCN(C[C@H]1N[C@@](CC)(C(=O)OC)[C@H]2C(=O)N(Cc3ccccc3)C(=O)[C@@H]12)S(=O)(=O)c1ccc(-c2ccccc2)cc1 |  | inactive: -1.81% |
| COC(=O)c1c(NC(=O)/C=C/C(=O)O)sc(C)c1-c1ccc(C(C)C)cc1 | inconclusive [inhibitor, partial curve] |  |
| Cc1nnc(SCC(=O)NC(=O)Nc2ccc3c(c2)OCCO3)n1N |  | inactive: -1.55% |
| Cc1ccc(NS(=O)(=O)c2ccc3c(c2)C(=O)c2ccccc2C3=O)c(C)c1 |  | inactive: 0.362% |
| COc1cc(N)c(Cl)cc1C(=O)OCC(=O)c1ccc2c(c1)NC(=O)CO2 |  | inactive: -6.76% |
| CC(C)S(=O)(=O)C1=NSC2=NC(=O)/C(=C\c3ccc(-c4ccccc4)o3)C(=N)N21 | inconclusive [inhibitor, partial curve] |  |
| O=C(O)c1ccc(COc2ccc3ccccc3c2/C=C2/NC(=O)N(Cc3ccc(F)cc3)C2=O)cc1 | inconclusive [inhibitor, partial curve] |  |
| O=[N+]([O-])c1ccc2nc(NS(=O)(=O)c3ccc(F)cc3)sc2c1 | inconclusive [inhibitor, partial curve] |  |
| COc1ccc(-c2c(-c3ccsc3)oc3c2C(O)CCC3)cn1 (centres undefined) | inconclusive [inhibitor, partial curve] |  |
| O=C1c2ccccc2-c2onc3ccc(N4CCCC4)c1c23 |  | inactive: 125% |
| O=C(O/N=C(/c1ccccc1)c1ccncc1)c1ccc(F)cc1 | inconclusive [inhibitor, partial curve] |  |
| O=C(COc1ccccc1Br)Nc1ccccc1C(F)(F)F | inconclusive [inhibitor, partial curve] |  |
| COc1ccc(-n2nc(C(=O)NCC(=O)N3CCC(C)CC3)c3ccccc3c2=O)cc1 | inconclusive [inhibitor, single point] |  |
| CCOc1c(OC)cccc1C(=O)NCC1(c2ccccc2)CCCC1 | inconclusive [inhibitor, full curve] |  |
| Cc1ccc(/C=N/NC(=O)C(C)Oc2cccc3ccccc23)o1 (centres undefined) | inconclusive [inhibitor, partial curve] |  |
| CC1(C)CC(=O)C2=C(C1)c1c(ccc3ccccc13)NC2c1ccc(C(=O)O)cc1 (centres undefined) |  | inactive: -2.61% |
| COc1ccc(C)cc1NC(=S)NC(C)c1ccc(OC)c(OC)c1 (centres undefined) | inconclusive [inhibitor, full curve, poor fit] |  |
| Cn1c(N)c(C(=O)COC(=O)C2(c3ccc(Cl)cc3)CCCC2)c(=O)n(C)c1=O | inconclusive [inhibitor, partial curve] |  |
| COCCCN(Cc1cc(OC)c(OC)c(OC)c1)C(=S)Nc1cccc(SC)c1 | inconclusive [inhibitor, full curve, poor fit] |  |

| SMILES | Potency | activity, negative = inhibition |
| --- | --- | --- |
| CCNC(=O)NC(=O)C(C)Sc1nc2ccccc2c(=O)n1-c1cccnc1 (centres undefined) | inconclusive [inhibitor, single point] |  |
| Cc1ccccc1NS(=O)(=O)c1ccc2c3c(cccc13)C(=O)N2C | inconclusive [inhibitor, full curve] |  |
| Cc1ccc([N+](=O)[O-])c(OCCn2cnc3ccccc32)c1 |  | inactive: -15.4% |
| COC(=O)c1cn(C(=O)c2ccc(C)cc2)c2ccccc12 | inconclusive [inhibitor, partial curve] |  |
| Cc1cc(NS(=O)(=O)c2ccc(Nc3nc(-c4ccc(O)cc4)cs3)cc2)no1 | inconclusive [inhibitor, partial curve] |  |
| CC(C)c1ccccc1OCCNC(=S)NC(=O)c1cccnc1 | inconclusive [inhibitor, partial curve] |  |
| Cc1ccc(NC(=O)c2cc(=O)c3ccccc3o2)cc1S(=O)(=O)N1CCCCC1 | inconclusive [inhibitor, full curve, poor fit] |  |
| NS(=O)(=O)c1ccc(NC(=O)Cc2c(F)cccc2Cl)cc1 | active: 28.2 µM |  |
| CC(=O)N1CCN(c2nc(-c3ccco3)c3c(c2C#N)CC(C)(C)SC3)CC1 |  | inactive: -2.54% |
| Cc1ccc2oc(=O)n(Cc3ccccc3)c2c1 | inconclusive [inhibitor, full curve] |  |
| COc1cccc(NC(=O)C2(C)CCN2Cc2ccccc2Cl)c1 (centres undefined) | inconclusive [inhibitor, partial curve, poor fit] |  |
| CC(=O)OC[C@@H]1CN(Cc2cccc(C(F)(F)F)c2)C[C@H](n2cnc3c(NCc4ccco4)ncnc32)O1 | inconclusive [inhibitor, full curve] |  |
| CN(C)CCOc1ccc(C(C)(C)c2ccccc2)cc1 |  | inactive: 17.6% |
| COC(=O)c1ccccc1S(=O)(=O)N1CCCC(c2nc3c(nnn3Cc3ccc(C)cc3)c(=O)[nH]2)C1 (centres undefined) | inconclusive [inhibitor, partial curve] |  |
| COc1cc(/C=C2/C(=N)N3C(=NC2=O)SN=C3S(C)(=O)=O)ccc1OC(=O)c1ccco1 | inconclusive [inhibitor, partial curve] |  |
| COc1cc(O)cc2c1[C@@H]1Oc3c(ccc(O)c3CC=C(C)C)[C@@H]1CO2 | inconclusive [inhibitor, partial curve] |  |
| O=C(Nc1cccc(OC(F)(F)F)c1)C1Cc2c(-c3cccc(F)c3)ccnc2O1 (centres undefined) | inconclusive [inhibitor, full curve, poor fit] |  |
| O=C(Nc1cc(C(=O)Nc2ccccc2C(=O)O)cc(C(=O)Nc2ccccc2C(=O)O)c1)c1ccccc1 |  | inactive: -11.9% |
| CCCCCCOC(=O)C(C#N)c1nc2ccccc2nc1N1CCOCC1 (centres undefined) | inconclusive [inhibitor, full curve] |  |
| O=C(Nc1ccccc1-c1ccccc1)c1cccs1 | inconclusive [inhibitor, partial curve] |  |
